# Measured values reported in the supplement of paper PMC3334620.
# The full ranking holds about 33,000 sequences; the median of “E-score (-0.5 to 0.5)” is about -0.017, and the highest 2% start at about 0.3. The list shows a part of the results.
# Molecular target: T1, Sut1 (UniProt P53032)
# T1 sequence: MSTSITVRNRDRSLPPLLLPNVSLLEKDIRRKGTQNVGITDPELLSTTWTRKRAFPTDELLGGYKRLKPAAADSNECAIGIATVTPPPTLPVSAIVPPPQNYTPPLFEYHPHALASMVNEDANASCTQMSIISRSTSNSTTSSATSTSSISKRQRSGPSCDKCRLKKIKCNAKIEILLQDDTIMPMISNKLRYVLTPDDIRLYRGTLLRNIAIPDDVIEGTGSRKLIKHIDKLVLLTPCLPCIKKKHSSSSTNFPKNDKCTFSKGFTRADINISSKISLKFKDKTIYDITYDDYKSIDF
# Test: PBM E-score (8-mer binding enrichment) (E-score (-0.5 to 0.5)); higher = stronger / more preferred TF binding; most listed sequences are background and not binding sites
# Conditions: protein concentration: 200 nM; construct: GST-full length
# How it was run: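 Universal all-10-mer Agilent arrays, fresh or stripped once, were converted to double-stranded form by primer extension. GST-tagged yeast transcription factors from PURExpress in vitro transcription/translation, full-length or DNA-binding domain only, were applied at about 100-200 nM and detected with fluorescent anti-GST. After masliner normalisation, the Universal PBM Analysis Suite scored each ungapped eight-base word together with its reverse complement by E-score.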
row,Sequence,PBM E-score
1,AACAGATA,0.155
2,ATCGAGTC,0.0272
3,CTGCTGTC,-0.0435
4,CAGTGGGG,-0.381
5,GAGGAAAC,-0.0262
6,TAAATCGA,0.149
7,ACCAGGCC,-0.123
8,CCCGCTAA,-0.246
9,CAAAGCCA,-0.0132
10,GGGTACCC,-0.155
11,CATACATC,-0.0196
12,CCCAGCAC,-0.27
13,AATACTGG,-0.0585
14,GCGTCCTA,-0.336
15,CCCGGCCG,-0.0961
16,CGTAAAGA,0.103
17,CTGCTAGA,0.00847
18,CAGACCCA,-0.221
19,CATATCAG,0.0554
20,GATTGCGA,0.0896
21,AGATTCTG,-0.15
22,CGGTTGAC,0.0738
23,ACGCCAGA,-0.218
24,CAAGCTAA,-0.0565
25,AGACTCCG,0.47

row,Sequence,PBM E-score
1,ATACGGGA,-0.218
2,CGATTGAC,-0.0081
3,CCTATATA,0.091
4,ACCCGACA,-0.112
5,CAACTTCG,0.0403
6,AATATTTG,0.22
7,AGCGTCCA,-0.07
8,CTTCCTGA,-0.0817
9,CGCGGTGC,-0.164
10,AAACAGTG,-0.0323
11,ATCCACAT,0.166
12,AGGGGAGG,-0.287
13,ACGGCTTA,-0.0811
14,CGCACACC,-0.178
15,AACTAGAG,0.0891
16,TGACTGAA,-0.163
17,ATCTACCG,0.231
18,AGACACGA,-0.0814
19,ACAATCTA,0.0253
20,GGGATGCA,-0.101
21,GCTTAGCC,-0.129
22,CATCTGGG,-0.245
23,GACTCGCC,-0.158
24,GATACTCA,0.145
25,CCGAGTGA,0.153

row,Sequence,PBM E-score
1,ACTAGAGG,-0.0643
2,ATCACTCA,-0.0276
3,GATCTAAA,0.0474
4,GGGAGCGA,-0.287
5,TTAGGCAA,0.0414
6,CCATACGG,-0.0064
7,ACAACACG,-0.0103
8,AGATTTAT,0.217
9,GGGGACGA,-0.0278
10,AACATAAA,0.0937
11,AATTACAA,0.175
12,AACGCACT,0.0273
13,CTGGGACA,-0.306
14,CCGGCTAA,0.153
15,GTAGCGCA,-0.0393
16,GCGTATTA,0.156
17,TAGCGCAA,-0.00527
18,GGCAAGCC,-0.15
19,AAACTTCT,0.262
20,AATTTGTG,0.0995
21,AAGGACAA,0.0597
22,ACTCCCTA,-0.192
23,CGGCTTAG,-0.066
24,CCTAACAC,0.0782
25,ACGGTCTC,0.00199

row,Sequence,PBM E-score
1,AGTACGCC,-0.0977
2,GGGTAGTA,-0.0886
3,CACATCAG,-0.0654
4,ATTAGTCG,-0.00629
5,GAAGTCCA,0.0321
6,CCATCGCG,0.117
7,GCATTTAA,0.162
8,CCGAGCAC,-0.00901
9,AGAAGGCA,-0.0832
10,GTCGTCGA,-0.244
11,CACCCGAA,0.107
12,AATGCCGA,0.0757
13,AGCGCCGC,-0.17
14,ACGAAATG,-0.0185
15,AGCAGAGA,-0.0999
16,GGCGAAAA,0.138
17,ACGTAGGA,0.0207
18,CTTTAGAA,0.199
19,ACGCTGTA,-0.0391
20,CTATAATC,0.0817
21,CTGCCGCA,-0.236
22,TAACTATA,0.178
23,GCGGCAGC,-0.221
24,GCCCAGGA,-0.187
25,AATCGAAT,0.135

row,Sequence,PBM E-score
1,GACTAGCA,-0.0601
2,GGAGAGAC,0.125
3,ATAAAGAT,0.328
4,ACTTAGAC,0.174
5,GCCCTACA,-0.0427
6,AGCTTGTA,0.058
7,ACTGTAAG,0.189
8,ACTTAAAT,0.169
9,CGCCCACC,-0.181
10,TCGTAGCA,-0.0446
11,GTGTTAAC,-0.0281
12,TATAGTGA,0.121
13,ACTTAGTC,-0.144
14,CACGGAAC,0.202
15,GCATCTAA,0.158
16,AGAAAGGC,-0.054
17,CGTATAGA,0.125
18,TCTAGCAA,0.126
19,CGTCCTTC,-0.0411
20,ATGGGAAC,-0.0636
21,ATTCCGAA,0.378
22,CCCTATCG,-0.224
23,ATAGCGGG,-0.0741
24,CCTACCAC,-0.236
25,CATCATAG,0.107

row,Sequence,PBM E-score
1,GGACACAA,0.0694
2,CAGTCGCG,-0.119
3,ATGCTCAA,-0.0662
4,ATCACTGG,-0.0543
5,CACGTTTC,0.0143
6,ATCTTGCG,0.0128
7,ACGCAGTA,0.0511
8,CTCTGCTA,-0.228
9,CCGTGAGA,-0.175
10,GGATGTCA,0.102
11,CCACGCCA,-0.0694
12,GCTGGTAC,-0.118
13,ACGCGGAC,0.302
14,CTTGTAGC,-0.0491
15,AGCCCCCT,-0.226
16,GTCGTAGA,0.0683
17,ACTAGCAA,-0.00525
18,CGTGGTGA,-0.15
19,CCACACAA,0.077
20,CATCCAGA,-0.184
21,ACCCGATA,-0.104
22,AGCCCACT,-0.148
23,CGGCGCGA,-0.0164
24,AGGATGAT,-0.0348
25,ACCGGATG,0.00862

row,Sequence,PBM E-score
1,GGCATCCC,-0.236
2,GGCTCAGA,0.0135
3,CGACGCGA,-0.133
4,ACGGTGCT,-0.0392
5,CGGCAAGA,-0.0505
6,CCGGGTCG,-0.079
7,GGCACTAA,0.0491
8,ACATCCAC,0.08
9,AGCCGTCC,0.0505
10,GGTGCTGA,-0.119
11,AATGGTAC,0.129
12,AAAAATAG,0.27
13,ACTTTGAT,0.0105
14,GAGTGTTA,0.109
15,AAAGTACA,0.107
16,TCTGATCA,-0.154
17,GAGGGCTA,-0.234
18,GAGCATCA,0.0861
19,TCTCGCAA,0.0389
20,GCTTTTCC,0.0525
21,CAACCTTC,0.0437
22,AGTAAGCA,-0.0193
23,CTATGCGC,-0.148
24,AGCTCCTA,-0.173
25,CCTGACAA,-0.147

row,Sequence,PBM E-score
1,CGAACGAC,0.0205
2,CCAGGGTC,-0.265
3,TACGGCAA,-0.0263
4,AGGCTGTC,-0.137
5,CCCGCATC,-0.0615
6,GATCCGCA,-0.225
7,ACCTGTAC,-0.0416
8,ATTCCAGG,-0.0249
9,AACCCCAA,-0.0115
10,GATAAGTA,0.189
11,AGACCTCG,-0.0853
12,CCCGTCCA,-0.198
13,AAGCGATT,0.0402
14,GAATGGTC,-0.0614
15,ACAATGGT,-0.137
16,CCATAGTC,-0.176
17,CCGCGTGA,0.0524
18,CTTCGGGA,-0.00189
19,AGCCGACG,-0.132
20,TCAAGCAA,0.0551
21,CGAGATCA,0.122
22,CATTGCCA,-0.0454
23,CCACTCCA,-0.174
24,ACTTCGTG,-0.114
25,AGCTACAT,-0.136

row,Sequence,PBM E-score
1,ACGCGGCT,-0.0648
2,TATCGTCA,-0.16
3,CGAAAATC,0.252
4,AGTACCTG,0.0244
5,CCATTCTA,0.0575
6,GACGTAAA,-0.0834
7,ACACCGGA,0.343
8,GCCTGCGC,-0.241
9,ACTTTCAA,0.257
10,GTAACCAA,0.116
11,GATAAGAC,-0.101
12,CAGTGAAC,-0.0239
13,GCTGCGTA,-0.134
14,GCGCGGAA,0.15
15,CAGGTGTA,-0.129
16,GAGACGCA,-0.0137
17,GTCCAATA,0.106
18,GAAGGGCC,-0.131
19,AAGAAAAT,0.257
